Data published in PubChem BioAssay AID662 (National Center for Advancing Translational Sciences (NCATS), 2007).
Among all 71,000 compounds or so, about 1,800 (2.5%) were called active. The inconclusive results got no clear call from the source; some entries with a clear call stand among them for comparison. The call rests on the fitted dose curve; in most records, active means well fitted activation curve with a large enough effect in the signal ratio, with a control signal flat (not every such curve was filed as active); inconclusive means small, poorly fitted or top-dose-only effect, or effect the other way, or a change in a side signal; inactive means flat fitted curve, though single readings scatter; the % refers to the signal ratio. Where the call is inconclusive, the potency comes from a doubtful curve fit.

Test: Cell signaling CRE-BLA (Fsk stim); on activity change, negative = inhibition: % of control where 0% means no effect
Details: CHO CRE-bla reporter (cAMP response element driving beta-lactamase), forskolin EC10, beta-lactamase ratio; activity change, negative = inhibition: at 38.2 µM (top of the series) unless noted
Outline: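 Using CellSensor CRE-bla CHO cells in Opti-MEM with 0.5% dialyzed FBS, compounds were titrated with EC10 NKH 477 for 3 h at 37 °C. CCF4 ratio (460/530 nm) gave %Activity; AC50 derived.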
Potency means the concentration at half of the fitted maximal effect; tags describe the fitted curve by direction and shape.

SMILES	activity change, negative = inhibition	Potency
CC(=O)NC1C(=O)N=C(SCC(=O)NCc2ccccc2)NC1=O (configuration not stated)	inactive: -1.1%	
N#CC1=C2SCN(c3ccccc3)CN2C(=O)CC1c1ccccc1Cl (configuration not stated)	inactive: 3.67%	
O=C(COC(=O)c1ccccc1)NCc1ccco1	inactive: -4.85%	
CCOCCCNC(=O)c1cn(CC(C)C)c(=O)c2cc(OC)c(OC)cc12		inconclusive: 12.6 µM [rising, partial curve]
CCOC(=O)C1=C(C)N=c2s/c(=C/c3ccco3)c(=O)n2C1c1cccc(OC)c1 (configuration not stated)	inactive: -3.2%	
CCN(CC)c1ccc2c(C)c(CN3CCOCC3)c(=O)oc2c1		inconclusive: 12.6 µM [rising, partial curve]
CCN1CCCC1CNC(=O)c1cc2c(-c3ccc(Cl)cc3)nn(C)c2s1 (configuration not stated)		inconclusive: 10 µM [rising, partial curve]
O=S(=O)(Cc1ccccc1)N1CCC(N2CCN(c3ccccc3)CC2)CC1	inconclusive: 10.8% [at 7.6 µM]	
CCOC(=O)CSc1nnc(CNC(=O)c2ccco2)n1-c1ccc(F)cc1	inconclusive: 8.74%	
CC1Cc2ccccc2N1C(=O)CSc1ncccc1C(=O)O (configuration not stated)	inactive: -2.59%	
Cc1cc(C)cc(NC(=O)Cn2ncn3c(cc4ccccc43)c2=O)c1		inconclusive: 0.00398 µM [rising, full curve, poor fit]
Cc1occc1-c1nc(-c2ccccn2)no1	inactive: 8.97%	
CC12CCC(C(=O)n3c1nc1ccccc13)C2(C)C (configuration not stated)	inconclusive: -7.58%	
N#Cc1c2n(cnc1=O)CCCCC2	inactive: -1.95%	
Cn1c(=O)[nH]c(=O)c2c1nc(NCc1ccco1)n2CCCc1ccccc1		inconclusive: 7.94 µM [rising, partial curve]
COC(=O)c1ccc(CSc2nc3ccccc3c(=O)n2Cc2ccco2)o1	inactive: 17.7%	
O=C(c1cc(-c2ccco2)on1)N1CCc2ccccc2C1	inconclusive: -1.44%	
CCCN[C@@H](C)C(=O)Nc1c(C)csc1C(=O)OC	inactive: 1.02% [at 17.1 µM]	
CCCNS(=O)(=O)c1ccc(NC(=O)c2ccccn2)cc1		inconclusive: 10 µM [rising, single point]
COC(=O)c1[nH]c2cccc(OC)c2c1NC(=O)CCN1CCC(C)CC1	inconclusive: -13.4%	
CCOc1ccc(N2CC(C(=O)Nc3ccc(S(=O)(=O)N4CCOCC4)cc3)CC2=O)cc1 (configuration not stated)	inconclusive: -23.5% [fluorescent]	

SMILES	activity change, negative = inhibition	Potency
O=C(O)c1ccccc1C(=O)N1CC=C(c2ccccc2)CC1	inconclusive: -7.58%	
CSc1nsc(SC)c1NC(=O)OCc1ccccc1	inconclusive: 18.1%	
Cc1noc(COc2ccc(OCc3nc(C)no3)cc2)n1	inactive: -0.741%	
O=C1CC(N(O)c2ccccc2)C(=O)N1c1cc(Cl)cc(Cl)c1 (configuration not stated)	inactive: -12.8%	
COc1ccc(C(c2nnnn2Cc2ccccc2)N2CCN(c3ccccc3)CC2)cc1 (configuration not stated)	inactive: -5.99%	
CCCn1c(C)nc2c(Nc3ccccc3)nc(C)nc21		active: 12.6 µM
O=c1[nH]c(CSc2nnc(-c3ccncc3)n2Cc2ccco2)nc2ccccc12		inconclusive: 10 µM [rising, partial curve]
Cc1occc1C(=O)NC1CCCc2ccccc21 (configuration not stated)	inactive: 19.9%	
COC(=O)c1nnn(CC(=O)Nc2ccc(C)c(F)c2)c1C(=O)OC	inconclusive: -22.5%	
C=CCN1C(=O)/C(=C2/Sc3ccccc3N2C)SC1=Nc1c(C)n[nH]c1C		active: 1.58 µM
COc1ccccc1CNc1ccnc(-c2ccc(C(=O)N(C)C)cc2)n1	inconclusive: 19.8%	
COc1cc(C2=NOC(C(=O)NCc3ccco3)C2)cc(OC)c1OC (configuration not stated)		inconclusive: 7.94 µM [rising, partial curve]
C=CCn1c(N)c(C(=O)NCC2CCCO2)c2nc3ccccc3nc21 (configuration not stated)		active: 10 µM
COc1ccccc1-n1c(SCC(N)=O)nnc1-c1ccc(S(=O)(=O)N2CCCCC2)cc1	inactive: 0.528%	
CCOC(=O)Cn1c(C(C)=O)nc2ccccc21	inactive: -1.22%	
CCc1ccc(N2CC(C(=O)Nc3cc(C)ccc3F)CC2=O)cc1 (configuration not stated)		inconclusive: 0.398 µM [rising, partial curve]
NC(=O)CSC1=Nc2ccccc2C2=NC(CCC(=O)NCc3ccc(F)cc3)C(=O)N12 (configuration not stated)	inconclusive: -11.9%	
CC(=O)N1CCc2cc(S(=O)(=O)CCC(=O)Nc3c(C)n(C)n(-c4ccccc4)c3=O)ccc21		inconclusive: 0.126 µM [falling, full curve, poor fit]
CC1(C)CC(=O)c2cnc(NCC3CCCO3)nc2C1 (configuration not stated)		inconclusive: 5.01 µM [rising, single point]
O=C(CN1CCN(c2nc(-c3ccc(F)cc3)cs2)CC1)NCc1ccc2c(c1)OCO2		inconclusive: 7.94 µM [falling, single point]
CCOC(=O)c1cccnc1SCc1cc(=O)n2ccccc2n1		inconclusive: 5.01 µM [rising, partial curve]
